# In patent US12551573B2, “Compositions and methods for the targeting of PCSK9” (Scribe Therapeutics Inc., priority 2022, dated 2026):
# Where a chain is given by its changes, count along the chain named.
# B1: DOMAIN_9331 (protein, listed as Peromyscus maniculatus)
# chain: IQNTVTYDDVHIDFTWEEWTLLDPSQRNLYKDVMVETYTNLTAVGYSWEDHNMEEHCQSSQRQRRYKRSNTGEKPCEYTQC
# B2: DOMAIN_10577 (protein, listed as Colobus angolensis)
# chain: KPGAVSFADVAVYFSPEEWGCLRPAQRALYRDVMRETYGHLGALGFPGPKPALISWMEQESEAWSPAAQDPEKGERLGGAR
# B3: DOMAIN_9538 (protein, listed as Mus musculus)
# chain: MNAVTYEDVHVNFTQEEWALLDPSQKKLYKDVMLETYRNLNAIGFNWDSKIFKNIVQVLEDTEGMKEVRVQRKRLNILNVI
# B4: DOMAIN_9526 (protein, listed as Mesocricetus auratus)
# chain: MEELLSFPDVAIDFSAEECECLDLAQWNLYKEVMLENYSNLVFLGLSFSKPYLVTFLEQSSEPWSVKRKSAAASHPGSKPH
# B5: DOMAIN_9250 (protein)
# chain: QQRPVSFKDVVVGFTQEEWRRLNPAQRALYRDVMLETYSNLVSVGYEGTKPDVILRLEQEEAPWICEAVCPGCHCQEDFLS
# modifications: Marmota monax
# B6: DOMAIN_9290 (protein, listed as Peromyscus maniculatus)
# chain: MNTVTYDDVHIGFTWEEWTLLDPSQKNLYKDVMLETYRNLAIIGYSWEDHNIEEHYQNSRRHERHERSQTGMKTSVHTQCS
# B7: DOMAIN_9060 (protein, listed as Cricetulus griseus)
# chain: FQELVVFRDVAVEFCKDEWECLGPDQRSLYRDVMLETYSNFVSLGLAVSKPSVISLLEQGKEPWMVEQAGWYPDLLSVNET
# B8: DOMAIN_9787 (protein, listed as Mus caroli)
# chain: B7 chain with Q2K, D17E, D25E, T37N, V48I, S52T, V53I, M65I, V78E, T81A
# B9: DOMAIN_9713 (protein, listed as Cricetulus griseus)
# chain: KPGAVSFADVAVYFSPEEWGCLRPAQRALYREVMRETYGLLGALGVGGAKPALISWVEEEAELWGPGAQDPEVAMCQTQAD
# B10: DOMAIN_9725 (protein, listed as Mus caroli)
# chain: LQEAVTFNDVAIDFSQEEWEWLNSAQRSLYRTVVLENYRNLVSVGACISKPSLISLLEHGKEPWEVKGQVTGSRVQGGESV
# B11: DOMAIN_9723 (protein, listed as Mus caroli)
# chain: MEDLLSFTDVAIDFSADECECLDSAQWNLYKEVMLENYSNLVFLGLAFSKPHLVTFLEQSSDPWSVKRKASAAISLGSKPH
# B12: DOMAIN_9265 (protein, listed as Mus musculus)
# chain: VEEPVTFKDVAVAFTQEEWGQLDLVQRTLYRDVMLETYGHLLSVGNQIAKPEVISLLEQGEEPWSVEQGYPKSSCPEWMRN
# B13: DOMAIN_9503 (protein, listed as Ictidomys tridecemlineatus)
# chain: B12 chain with E2P, K8E, A13D, S65L, G69T, Y70C, K72E, N81D
# B14: DOMAIN_9563 (protein, listed as Mus musculus)
# chain: GCCSLETHSIRDKNAVTYGDVHVNFTQEEWALLDPSQKKLYKDVMLETYRNLNAIGFNWDDKNTEEHCPSTRRWRRFYRMQ
# B15: DOMAIN_9313 (protein, listed as Mus musculus)
# chain: KPWAVNFADVAVYFSPEEWRYLRPAQRALYREVMRETYGLLAYLDVGCAKPALICWVEEESEVWGPCAQDPEVAMCRTEVH
# B16: DOMAIN_9324 (protein, listed as Peromyscus maniculatus)
# chain: MEEMLSFRDVAIDFSAEEWECLDLAQWNLYRDVMLENYSNLVFLGLASCKPYLVTFLEQRQGPSDVKRQAAAPVHPGGTPY
# B17: DOMAIN_9389 (protein)
# chain: FQESVTFRDVAIAFSQQEWQSLDSSQRDLYRDVMLENYRNLVSLGHSLSKPHVITLLEQWKDPWETGRKDKRRRCADLQLE
# modifications: Marmota monax
# B18: DOMAIN_9446 (protein)
# chain: AQESVMFSDVSIDFSQEEWECLTDDQRHLYRDVMLENYSNLVSMGHSISKPNVISYLEQGKEPWLVDRGRTRGQWPVLEST
# modifications: Marmota monax
# B19: DOMAIN_9789 (protein, listed as Mus musculus)
# chain: FQVPVTFRDVAVYFCREEWECLSPSQRTLYRNVMLENFRNLNELGCCSRRPGLITRLEQWDEPWVDDWDRSEFPDGQKSFC
# B20: DOMAIN_9776 (protein)
# chain: AHGSVTFRDVAMDFSQQEWECLNPFQKTLYRDVMMENYGNLVSLGHSISKPDVITLLEQGKEPWMIVKKETRKWRKDLESR
# modifications: Marmota monax
# B21: DOMAIN_9189 (protein)
# chain: EPWAITFADVAVYFSPEEWGCLQPTQRALYRDVMRDTYVLLSALGGGGAKPALISWVEREAELWDPDAQDPEVPKWPTEAD
# modifications: Heterocephalus glaber
# B22: DOMAIN_9159 (protein, listed as Dipodomys ordii)
# chain: AVTQLTFEDVAVDFTPEEWRCLTPAQRALYRDVMLDTYRNLVSVGVSPPSMSVILPLEFQEEPWVAQSHVTTLGGLNGWEG
# B23: DOMAIN_9704 (protein, listed as Dipodomys ordii)
# chain: B22 chain with D13Y, P16R, A28T
# B24: DOMAIN_9643 (protein, listed as Dipodomys ordii)
# chain: B22 chain with P16Q, P24Q, A28T, R39G, E62D, Q67K, L73P, G75E
# B25: DOMAIN_9356 (protein, listed as Ictidomys tridecemlineatus)
# chain: B2 chain with K1E, A28V, P66S, K73E, R76S, R81L
# B26: DOMAIN_9424 (protein, listed as Dipodomys ordii)
# chain: B2 chain with F46L, Q59G, S65N, K73E, R76N, R81L
# B27: DOMAIN_9544 (protein, listed as Octodon degus)
# chain: QGSVTFEDVAVHFSWDEWHLLDKAQRCLYRDVMAENLALITSLGLWPGVGDAEASSEQSASLKGMSQVRTFREGLSPQRAQ
# B28: DOMAIN_9542 (protein, listed as Octodon degus)
# chain: VTFEDVAVNFSREEWALLDPPQRKLYRDVMWETLRHLAAVDDQQSEDEFRNFQKRVRSEEVEKASQYTLWYQHGEMDSRTP
# B29: DOMAIN_9175 (protein, listed as Peromyscus maniculatus)
# chain: KENAVTYDDIHIDFTREEWTLLDPSQKNLYKDVMLETYRHLTTIGYSWEDHNIEKYCESSRRHKSTVQRHKRTNTNENPYE
# B30: DOMAIN_9192 (protein, listed as Mus caroli)
# chain: SQGLVTFGDVAVVFSQEEWEWLSSEQRSLYWKVMLDNYRNLASLGLCASKPDMITSLEQGRDPWMMKRKMRKGQRLDLKAM
# B31: DOMAIN_9697 (protein, listed as Octodon degus)
# chain: VHGSVTFRDVAIDFCQEEWECLGPIQRDLYRDVMLENYSNLIAVGSTISKPDVIALLEQGTEPWMGVRKDRSRWYPGLNSG
# B32: DOMAIN_9435 (protein, listed as Fukomys damarensis)
# chain: EPWAITFADVAVYFSPEEWGCLQPTQRALYRDVMRDTYVLLSALGGGGGAKPALISWVERESELWDSDAQDPEVPKWPTEA
# B33: DOMAIN_9576 (protein, listed as Octodon degus)
# chain: SQGSVSFKDVTVGFTQEEWQHLDPSQKSLYRDVMLENYSHLVSVGYCVTKPELIFRLEQGEEPWVLEEEFPRPGFLEFWKT
# B34: DOMAIN_9530 (protein, listed as Mesocricetus auratus)
# chain: DMGLVSFEDVAVDFTWQEWQELDAAQRTLYRDVMLENYSSLVSLGNCLDKPELISKLEQGLVPWSGAEATEQYQPDVHKWS
# B35: DOMAIN_9174 (protein, listed as Peromyscus maniculatus)
# chain: MVTFKDVAVAFSEEELRLLDPAQRKLYQEVMVENFQNLLSVGINNQSELRAVQDGGSHEALSCWQIWQRVIDNLTRCQDSM
# B36: DOMAIN_9235 (protein, listed as Mus musculus)
# chain: DMGLVSFEDVAVDFTWQEWQELDAAQRTLYRDVMLENYRSLVWLGHCLAKPELISKLEEGFEPWGVAEATEQCLPCAEDQT
# Tested on: HBEGF locus
# Type: cell-based, human
# Details: high-throughput screen of dXR repression of the HBEGF gene; change in abundance of each domain in the library before and after diphtheria toxin selection
row,Molecule,Log2 (fold change)
1,B1,4.1063
2,B2,4.1248
3,B3,3.5443

# Same assay, conditions: repressor domain in dXR, repression of the HBEGF gene; abundance of domain in library after vs before diphtheria toxin selection
row,Molecule,Log2 (fold change)
1,B4,2.9435
2,B5,3.466
3,B6,4.256
4,B7,2.5974
5,B8,3.2962
6,B9,3.0323
7,B10,2.9654
8,B11,2.1903
9,B12,2.1221
10,B13,2.9864
11,B14,3.7261
12,B15,2.7692
13,B16,3.1782
14,B17,3.1785
15,B18,2.8722
16,B19,2.5801
17,B20,2.6258

row,Molecule,Log2 (fold change)
1,B21,3.3801
2,B22,3.0141
3,B23,3.1674
4,B24,3.4306
5,B25,2.9297
6,B26,3.771
7,B27,2.9143
8,B28,2.6734
9,B29,2.4231
10,B30,2.7981
11,B31,2.7566
12,B32,3.1672
13,B33,2.1952
14,B34,2.7003
15,B35,2.5194
16,B36,2.7307
